Data: PubChem BioAssay (Tox21)
Several values for one entry are separate records, joined by “and”; a condition that tells them apart may be missing. Equal values may be shown once. The shares of active, inactive and inconclusive entries below differ from those in the screen. Potencies of inconclusive entries are doubtful fits and often do not repeat. Activity calls are given as the source filed them. Calls come from the whole dose curve; as a rule, active = well fitted inhibition curve with a large enough effect in the repeat runs; inconclusive = weak or mixed curves; inactive = no such curve, though single readings can be large or run the other way.

biological target: Cytochrome P450 1A2 (Homo sapiens) (UniProt P05177); assay: Cytochrome P450 Family 1 Subfamily A Member 2 (CYP1A2) small molecule antagonists: luciferase reporter qHTS assay (AID 1671199); conditions: P450-Glo CYP1A2 enzyme, luciferin luminescence, 1 h; series mostly up to 115 µM; note: nearly all actives have a fitted effect of over 50% in size
Sequence of UniProt P05177 (P05177 whole entry, looked up): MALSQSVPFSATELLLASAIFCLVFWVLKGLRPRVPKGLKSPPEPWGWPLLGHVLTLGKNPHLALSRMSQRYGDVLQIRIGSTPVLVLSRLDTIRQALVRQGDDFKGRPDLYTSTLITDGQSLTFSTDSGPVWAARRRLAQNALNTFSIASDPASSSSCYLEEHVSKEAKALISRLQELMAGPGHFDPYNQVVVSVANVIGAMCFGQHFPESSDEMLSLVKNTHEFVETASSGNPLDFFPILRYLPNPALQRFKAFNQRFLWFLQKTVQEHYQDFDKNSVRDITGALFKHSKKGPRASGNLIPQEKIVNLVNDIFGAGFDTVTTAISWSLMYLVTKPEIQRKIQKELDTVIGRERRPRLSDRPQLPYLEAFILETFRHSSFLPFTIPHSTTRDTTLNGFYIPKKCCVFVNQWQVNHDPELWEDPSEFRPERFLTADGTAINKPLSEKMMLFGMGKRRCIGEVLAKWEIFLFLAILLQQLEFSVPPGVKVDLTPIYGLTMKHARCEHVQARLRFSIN
In short: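 Enzymatic CYP1A2 assay, human, luminescent: 10 min compound–enzyme–substrate preincubation, 1 h NADPH-dependent turnover, 20 min detection step, room temperature throughout. Reduced light indicates lower CYP1A2 activity.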
% is set by controls: 0 for no effect and ±100 for the full control effect; potency is the fitted concentration of half-maximal effect; tags give direction and shape of the fitted curve.

| Structure (SMILES) | Potency | activity change, negative = inhibition |
| --- | --- | --- |
| CCC(=O)/C=C/c1ccc(OC)cc1 | active: 20 µM |  |
| CCC(C(=O)O)c1ccc(N2Cc3ccccc3C2=O)cc1 (stereo unspecified) | inconclusive: 27.5 µM [inhibitor, partial curve] |  |
| OCC(O)CS (stereo unspecified) | inconclusive: 63.9 µM [inhibitor, partial curve] |  |
| Nc1ccn([C@H]2CC[C@@H](CO)O2)c(=O)n1 | inactive |  |
| CCC(C)C(C)=O (stereo unspecified) | inconclusive: 34.8 µM [inhibitor, full curve] |  |
| CC(C)SCc1ccco1 | inactive |  |
| O=[N+]([O-])c1ccc(/C=C/c2ccc([N+](=O)[O-])cc2S(=O)(=O)O)c(S(=O)(=O)O)c1 | inconclusive: 63.3 µM [inhibitor] |  |
| O=C(O)c1ccc(S(=O)(=O)O)cc1C(=O)O | inactive |  |
| NCCCOCCOCCOCCCN | inconclusive: 56.4 µM [inhibitor, partial curve, poor fit] |  |
| CCCCCCCCCCCCC(=O)O | inconclusive: 63.5 µM [inhibitor, partial curve] |  |
| c1cc(CN2CCCCC2)cc(OCCCNc2nc3ccccc3s2)c1 | inactive |  |
| Nc1ccc(F)c([N+](=O)[O-])c1 | inconclusive: 39.9 µM [inhibitor] |  |
| CCCS(=O)c1ccc2nc(NC(=O)OC)[nH]c2c1 (stereo unspecified) | inconclusive: 12.9 µM [inhibitor, full curve] |  |
| Nc1nc(N)c(-c2ccccc2)s1 | active: 30.9 µM |  |
| CC(C)(C)[C@@H](O)[C@@H](Cc1ccc(Cl)cc1)n1cncn1 | inconclusive: 79.1 µM [inhibitor, single point] |  |
| [O]=[Bi] |  | inactive: -11% [at 10.5 µM] |
| NNS(=O)(=O)c1ccc(Oc2ccc(S(=O)(=O)NN)cc2)cc1 | inactive |  |
| O=C(O)CC(C(=O)O)C(CC(=O)O)C(=O)O (stereo unspecified) | inconclusive: 62.2 µM [inhibitor, partial curve, poor fit] and inconclusive: 71 µM [inhibitor, partial curve, poor fit] |  |
| CC(C)(c1ccc(Oc2ccc3c(c2)C(=O)OC3=O)cc1)c1ccc(Oc2ccc3c(c2)C(=O)OC3=O)cc1 | active: 70.6 µM |  |
| COC(=O)[C@H]1[C@H]2C[C@@H]3c4[nH]c5cc(OC)ccc5c4CCN3C[C@H]2C[C@@H](OC(=O)COc2ccc(OC)cc2)[C@@H]1OC | inconclusive: 38.9 µM [inhibitor] |  |
| Nc1ccccc1[N+](=O)[O-] | inconclusive: 71 µM [inhibitor, partial curve] |  |
